In paper PMC3347801:
These are yes or no findings as the source states them, for the method shown. In cells and extracts the contact can be indirect. Some results given as binding are weak or reduced against the parent protein; the word gives no strength.

Legend:
Test in all cases: co-IP; lysates of transfected HEK-293T cells (20 mM Tris/HCl pH 7.4, 150 mM NaCl, 1 mM EDTA, 1 % Triton X-100, 20 mM iodoacetamide) immunoprecipitated with anti-E2 serum R646, 2 h at 4 °C, protein A–Sepharose; reducing and non-reducing SDS-PAGE; blot with anti-E1 mAb A4 and anti-E2 mAbs AP33 and ALP98; grades are the estimated amount relative to WT
[1] = target: HCV E2 glycoprotein insertion mutant in682 (hepatitis C virus genotype 1a strain H77c) (UniProt P27958)
[2] = target: HCV E2 glycoprotein insertion mutant in620 (hepatitis C virus genotype 1a strain H77c) (UniProt P27958)
[3] = target: HCV E2 glycoprotein insertion mutant in531 (hepatitis C virus genotype 1a strain H77c) (UniProt P27958)
[4] = target: HCV E2 glycoprotein insertion mutant in408 (hepatitis C virus genotype 1a strain H77c) (UniProt P27958)
[5] = target: HCV E2 glycoprotein insertion mutant in573 (hepatitis C virus genotype 1a strain H77c) (UniProt P27958)
[6] = target: HCV E2 glycoprotein insertion mutant in413 (hepatitis C virus genotype 1a strain H77c) (UniProt P27958)
[7] = target: HCV E2 glycoprotein insertion mutant in630 (hepatitis C virus genotype 1a strain H77c) (UniProt P27958)
[8] = target: HCV E2 glycoprotein insertion mutant in596 (hepatitis C virus genotype 1a strain H77c) (UniProt P27958)
[9] = target: HCV E2 glycoprotein insertion mutant in614 (hepatitis C virus genotype 1a strain H77c) (UniProt P27958)
[10] = target: HCV E2 glycoprotein insertion mutant in734 (hepatitis C virus genotype 1a strain H77c) (UniProt P27958)
[11] = target: HCV E2 glycoprotein insertion mutant in732 (hepatitis C virus genotype 1a strain H77c) (UniProt P27958)

Measured: binding

HCV envelope glycoprotein E1, wild type (genotype 1a strain H77c) (from UniProt P27958 192-383)
binds: all assays above
